Structures can show the parent of a compound that is named as a salt. In all, about 2,800 compounds were measured (“cell viability relative to vehicle”: median about 0.98, lowest 2% from about 0.45 on). This is one part of the list.
Test system: NCI-H2228 alectinib-DTP
Experiment: cell viability relative to vehicle (fraction of vehicle); NCI-H2228 is an ALK-positive lung cancer line and DTP means drug-tolerant persister; higher = less growth inhibition
Conditions: 100 nM; treatment time 6 days
Method in brief: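 Drug-tolerant persister NCI-H2228 cells, produced by 13 days in 1000 nM of a targeted drug, and their parental counterparts were seeded into 384-well plates and, the following day, given the 3114-agent TargetMol anti-cancer compound library at 100 nM or DMSO vehicle. After 6 days, the CellTiter-Glo 3D Cell Viability Assay was used to read ATP. Each entry reports viability compared with vehicle-treated cells.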

| SMILES | cell viability |
| --- | --- |
| O[C@@H]1[C@@H](O)[C@@H](OC/C=C/c2ccccc2)O[C@H](CO[C@@H]2OC[C@H](O)[C@H](O)[C@H]2O)[C@H]1O [Rosavin] | 0.944 |
| N[C@@H](CSCCB(O)O)C(=O)O | 0.835 |
| CNCCCC1c2ccccc2C=Cc2ccccc21 [Protriptyline hydrochloride] | 0.951 |
| COc1cc(-c2cn(C)c(=O)c3cnccc23)cc(OC)c1CN(C)C | 0.851 |
| O=[N+]([O-])c1ccc(-c2nc(-c3ccc(F)cc3)c(-c3ccncc3)[nH]2)cc1 | 0.866 |
| CC1(C)CC[C@]2(C(=O)O)CCC3=C([C@@H](CCl)C[C@@H]4[C@@]5(C)C[C@H](O)[C@H](O)[C@@](C)(C(=O)O)[C@@H]5CC[C@@]34C)[C@@H]2C1 [Senegenin] | 0.889 |
| CC(CN1c2ccccc2S(=O)(=O)c2ccccc21)N(C)C (stereo not drawn) [Dioxopromethazine hydrochloride] | 0.927 |
| COc1ccccc1C(=O)Nc1cc2c(cc1N1CCCC1)n(C)c(=O)n2C | 1.1 |
| Cc1cc(C(=O)NOCCO)c(Nc2ccc(I)cc2F)n(C)c1=O | 0.693 |
| COc1cc(-c2cn(C)c(=O)c3cnccc23)c(OC)cc1CN(C)C | 1.05 |
| CC1(C)S[C@@H]2[C@H](NC(=O)[C@H](N)c3ccc(O)cc3)C(=O)N2[C@H]1C(=O)O [Amoxicillin trihydrate] | 0.885 |
| CCC(=O)O[C@@H](O[P@](=O)(CCCCc1ccccc1)CC(=O)N1C[C@H](C2CCCCC2)C[C@H]1C(=O)O)C(C)C [Fosinopril sodium] | 0.815 |
| COc1cccc2c1C(=O)c1c(O)c3c(c(O)c1C2=O)C[C@@](O)(C(=O)CO)C[C@@H]3O[C@H]1C[C@H](N)[C@H](O)[C@H](C)O1 [Doxorubicin hydrochloride] | 0.741 |
| OCCOCCN1CCN(C2=Nc3ccccc3Sc3ccccc32)CC1 [Quetiapine Fumarate] | 0.94 |
| Cc1nc(Nc2cnn(C3CCNCC3)c2)nc2c1N(C)C(=O)c1cc3ccccc3cc1N2C | 1.01 |
| C=C1CCC[C@]2(C)C=C3OC(=O)C(C)=C3C[C@@H]12 [Atractylenolide I] | 1.07 |
| O=C(C=Cc1ccccc1)NC(NC(=S)Nc1ccc(Cl)cc1)C(Cl)(Cl)Cl (stereo not drawn) | 0.938 |
| CCCCCCCCC[C@H](O)CC(=O)CCc1ccc(O)c(OC)c1 [10-Gingerol] | 1.05 |
| Cc1cccc(C(=O)O)c1O [Hydroxytoluic acid] | 1.07 |
| CC(C)(CNC(=O)c1cccc(-c2noc(C(F)(F)F)n2)c1)c1coc(-c2ccccc2)n1 | 1.05 |
| Nc1nc(Cl)nc2c1ncn2[C@H]1C[C@H](O)[C@@H](CO)O1 [Cladribine] | 0.493 |
| O=C([C@@H](Cc1cccc(C(F)(F)F)c1)NS(=O)(=O)c1cc(F)c2c(c1)CCNC2)N1CCCC1 [(R)-PFI-2 hydrochloride] | 0.974 |
| CN1CCc2c(c3ccccc3n2Cc2ccccc2)C1 [Mebhydrolin napadisylate] | 1.06 |

| SMILES | cell viability |
| --- | --- |
| Oc1ccc([C@H]2COc3cc(O)ccc3C2)cc1 [Equol] | 1.05 |
| O=c1cc(-c2cccc3c2Sc2ccccc2S3)oc(N2CCOCC2)c1 | 0.858 |
| Cc1[nH]c2ccccc2c1CCNC(=O)c1cccs1 | 0.919 |
| N=C(N)c1ccc(OCCCCCOc2ccc(C(=N)N)cc2)cc1 [Pentamidine isethionate] | 1 |
| O=C(OC[C@H]1O[C@@H](OC(=O)c2cc(O)c(O)c(OC(=O)c3cc(O)c(O)c(O)c3)c2)[C@H](OC(=O)c2cc(O)c(O)c(OC(=O)c3cc(O)c(O)c(O)c3)c2)[C@@H](OC(=O)c2cc(O)c(O)c(OC(=O)c3cc(O)c(O)c(O)c3)c2)[C@@H]1OC(=O)c1cc(O)c(O)c(OC(=O)c2cc(O)c(O)c(O)c2)c1)c1cc(O)c(O)c(OC(=O)c2cc(O)c(O)c(O)c2)c1 [Tannic acid] | 0.857 |
| CC(C)n1cnc2c(NCc3ccccc3)nc(NCCCO)nc21 [Bohemine] | 0.951 |
| N#Cc1c(O)c2c(-c3ccc(-c4ccccc4O)cc3)csc2[nH]c1=O | 0.954 |
| CCCCC(=O)O[C@H]1CC[C@H]2[C@@H]3CCc4cc(O)ccc4[C@H]3CC[C@]12C [Estradiol valerate] | 1.15 |
| Cc1nc2ccc(-n3ncc(C(=O)c4cc5ccccc5[nH]4)c3N)cc2[nH]1 | 0.828 |
| CC(=O)O[C@@]12CO[C@@H]1C[C@H](O)[C@@]1(C)C(=O)[C@H](O)C3=C(C)[C@@H](OC(=O)[C@H](O)[C@@H](NC(=O)OC(C)(C)C)c4ccccc4)C[C@@](O)([C@@H](OC(=O)c4ccccc4)[C@H]21)C3(C)C [Docetaxel] | 0.508 |
| CC(=O)O[C@@]12CO[C@@H]1C[C@H](O)[C@@]1(C)C(=O)[C@H](O)C3=C(C)[C@@H](OC(=O)[C@H](O)[C@@H](NC(=O)OC(C)(C)C)c4ccccc4)C[C@@](O)([C@@H](OC(=O)c4ccccc4)[C@H]21)C3(C)C [Docetaxel trihydrate] | 0.462 |
| CC(=O)OC(CC(C)C1=C2C[C@H](O)C3[C@@]4(C)CCC(=O)C(C)(C)C4CC[C@]3(C)[C@@]2(C)CC1)C1OC1(C)C (stereo partly drawn) [Alisol B 23-acetate] | 1.05 |
| O=C(/C=C/c1ccccc1)NC(NC(=S)Nc1cccc2cccnc12)C(Cl)(Cl)Cl (stereo not drawn) [Salubrinal] | 0.95 |
| C=C(C)[C@@H]1CC[C@]2(C(=O)O)CC[C@]3(C)[C@H](CC[C@@H]4[C@@]5(C)CCC(=O)C(C)(C)[C@@H]5CC[C@]43C)[C@@H]12 [Betulonic acid] | 1.08 |
| CO[C@H]1C[C@@H]2CC[C@@H](C)[C@@](O)(O2)C(=O)C(=O)N2CCCC[C@H]2C(=O)O[C@H]([C@H](C)C[C@@H]2CC[C@@H](OCCO)[C@H](OC)C2)CC(=O)[C@H](C)/C=C(\C)[C@@H](O)[C@@H](OC)C(=O)[C@H](C)C[C@H](C)/C=C/C=C/C=C/1C [Everolimus] | 0.74 |
| Fc1ccc(Cl)cc1-c1nc(Nc2ccncc2)c2nccnc2n1 | 1.14 |
| C=CC1=C(C)c2cc3[nH]c(cc4nc(cc5[nH]c(cc1n2)c(C)c5CCC(=O)O)C(CCC(=O)O)=C4C)c(C)c3C=C [Protoporphyrin IX] | 0.979 |
| CC1CNc2c(cccc2S(=O)(=O)N[C@@H](CCCNC(=N)N)C(=O)N2CC[C@@H](C)C[C@@H]2C(=O)O)C1 (stereo partly drawn) [Argatroban] | 1.13 |
| CN(C)CCN(Cc1ccccc1)c1ccccn1 [Tripelennamine hydrochloride] | 1.06 |
| COc1ccccc1N1CCN(CCN(C(=O)C2CCCCC2)c2ccccn2)CC1 | 1.08 |
| Nc1ccn([C@@H]2O[C@H](CO)[C@@H](O)C2(F)F)c(=O)n1 [Gemcitabine] | 0.678 |
| Nc1ccn([C@@H]2O[C@H](CO)[C@@H](O)C2(F)F)c(=O)n1 [Gemcitabine HCl] | 0.778 |
| Cc1cc(/C=C2/SC(=S)NC2=O)c(C)n1-c1cccnc1 [Optovin] | 0.918 |

| SMILES | cell viability |
| --- | --- |
| C[n+]1cc2c3c(ccc2c2ccc4cc5c(cc4c21)OCO5)OCO3 [Sanguinarine chloride] | 1.01 |
| C[C@@H](NC(=O)c1ncnc(N)c1Cl)c1ncc(C(=O)Nc2cc(C(F)(F)F)c(Cl)cn2)s1 | 1.07 |
| C=CC(=O)N1CC[C@H](n2nc(C#Cc3cc(OC)cc(OC)c3)c3c(N)ncnc32)C1 | 0.715 |
| Nc1ncnc2c1ncn2[C@@H]1O[C@H](CO)[C@@H](O)[C@H]1O [Adenosine] | 0.991 |
| CC(C)=CCC[C@](C)(O[C@@H]1O[C@H](CO)[C@@H](O)[C@H](O)[C@H]1O)[C@H]1CC[C@]2(C)[C@@H]1[C@H](O)C[C@@H]1[C@@]3(C)CC[C@H](O)C(C)(C)[C@@H]3[C@@H](O)C[C@]12C [Ginsenoside F1] | 1.12 |
| O=C1C[C@@H](c2ccc(O)cc2)Oc2cc(O)ccc21 [Liquiritigenin] | 0.852 |
| COc1ccc(S(=O)(=O)Nc2cc(-c3c(O)ccc4ccccc34)c(O)c3ccccc23)cc1 | 0.845 |
| O=C1Nc2ccccc2/C1=C1/Nc2ccccc2C1=O [Indirubin] | 0.944 |
| N=C(N)NC(=O)Cc1c(Cl)cccc1Cl [Guanfacine hydrochloride] | 0.913 |
| O=C(O)C(O)Cc1ccc(O)c(O)c1 (stereo not drawn) [Sodium Danshensu] | 0.971 |
| COc1cc(C(=O)O)ccc1NC(=O)[C@@H]1N[C@@H](CC(C)(C)C)[C@](C#N)(c2ccc(Cl)cc2F)[C@H]1c1cccc(Cl)c1F [Idasanutlin] | 0.996 |
| CC1(C)CCC(C)(C)c2cc(NC(=O)c3ccc(C(=O)O)cc3)ccc21 [Tamibarotene] | 0.771 |
| O=C(NCC(=O)N1CC[C@H](N[C@H]2CC[C@@](O)(c3ccc(-c4ncccn4)cn3)CC2)C1)c1cccc(C(F)(F)F)c1 | 1.02 |
| C=C1C[C@@]23CC[C@H]4[C@@](C)(CCC[C@@]4(C)C(=O)O)[C@@H]2CC[C@]1(O)C3 [Steviol] | 1.05 |
| Oc1ccc(OC2CCCCO2)cc1 (stereo not drawn) [Deoxyarbutin] | 1.03 |
| Nc1cccc2c1C(=O)N(C1CCC(=O)NC1=O)C2=O (stereo not drawn) [Pomalidomide] | 1.04 |
| COc1ccc(CC(C)(C)NC[C@H](O)c2cc(O)cc3c2OCC(=O)N3)cc1 [Olodaterol] | 1.01 |
| CN(C)CCOC(c1ccccc1)c1ccccc1 [Diphenhydramine hydrochloride] | 1.01 |
| CN1CCN(C(=O)C2C(C(=O)O)[C@H]3CC[C@@H]2O3)CC1 (stereo partly drawn) | 1.01 |
| CN(C)CC/C=C1/c2ccccc2Sc2ccc(Cl)cc21 [Chlorprothixene] | 0.945 |
| Cn1cc(CNCC2CCN(c3ncc(C(=O)NO)cn3)CC2)c2ccccc21 [Quisinostat] | 0.358 |
| CC(=O)[C@H]1CC[C@H]2[C@@H]3CCC4=CC(=O)CC[C@]4(C)[C@H]3CC[C@]12C [Progesterone] | 1.09 |
